Experimental data taken from PubChem BioAssay AID720709 (National Center for Advancing Translational Sciences (NCATS), 2013).
Out of some 360,000 compounds screened, about 520 (0.14%) were called active. Inconclusive results, whose numbers are uncertain, are shown with a selection of clear calls. Calls follow the shape of the dose curve; as a rule, active = well fitted inhibition curve with a large enough effect; inconclusive = small, poorly fitted or top-dose-only effect; inactive = no such curve, though single readings can be large or run the other way. No potency is given beside an inconclusive call; the fits are too rough.

Molecular target: Rap guanine nucleotide exchange factor 3 (Homo sapiens) (UniProt O95398)
UniProt O95398, sequence (O95398 whole entry, looked up): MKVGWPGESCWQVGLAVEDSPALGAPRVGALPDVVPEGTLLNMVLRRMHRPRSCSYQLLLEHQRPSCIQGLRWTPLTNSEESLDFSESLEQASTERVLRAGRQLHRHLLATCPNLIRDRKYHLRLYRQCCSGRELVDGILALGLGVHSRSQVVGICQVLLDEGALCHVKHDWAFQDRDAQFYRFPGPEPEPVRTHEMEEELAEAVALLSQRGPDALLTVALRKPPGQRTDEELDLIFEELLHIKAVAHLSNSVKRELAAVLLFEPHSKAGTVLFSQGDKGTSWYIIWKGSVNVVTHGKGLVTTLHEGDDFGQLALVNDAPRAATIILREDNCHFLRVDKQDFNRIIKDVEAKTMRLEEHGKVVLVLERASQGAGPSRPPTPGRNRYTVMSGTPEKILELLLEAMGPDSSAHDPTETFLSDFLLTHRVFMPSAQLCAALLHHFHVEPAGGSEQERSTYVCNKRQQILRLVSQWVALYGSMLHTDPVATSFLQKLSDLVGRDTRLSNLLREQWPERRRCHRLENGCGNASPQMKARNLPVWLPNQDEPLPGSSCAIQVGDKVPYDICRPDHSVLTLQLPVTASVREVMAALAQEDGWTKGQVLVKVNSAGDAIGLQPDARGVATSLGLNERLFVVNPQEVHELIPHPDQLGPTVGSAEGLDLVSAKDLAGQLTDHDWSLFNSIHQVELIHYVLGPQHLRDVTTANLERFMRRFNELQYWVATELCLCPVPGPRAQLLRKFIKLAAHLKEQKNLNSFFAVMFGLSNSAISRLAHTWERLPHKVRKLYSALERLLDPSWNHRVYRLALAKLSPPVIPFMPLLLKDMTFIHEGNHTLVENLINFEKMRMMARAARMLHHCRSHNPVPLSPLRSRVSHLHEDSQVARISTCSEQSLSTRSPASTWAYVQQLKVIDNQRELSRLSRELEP
Assay: qHTS for Antagonist of cAMP-regulated guanine nucleotide exchange factor 3 (EPAC1): primary screen; also: nearly all actives have a fitted effect of over 50% in size;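 as to activity change, negative = inhibition: plate controls were vehicle for no effect and positive control for full effect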
Conditions: EPAC1 GEF assay, Rap1b-BODIPY-GDP exchange fluorescence; activity change, negative = inhibition: at 115 µM (top of the series)
Potency is read from the fitted curve at half-maximal effect; tags tell the direction and shape of the fitted curve.

SMILES	Potency	activity change, negative = inhibition
O=C(c1ccccc1)C(CN1CCCCC1)c1ccccc1 (centres undefined)	inconclusive [inhibitor, partial curve]	–
CCOC(=O)c1sc2nc(NC(=O)COc3ccccc3)sc2c1C	inconclusive [inhibitor, single point]	–
COc1cc(OC)cc(C(=O)N[C@H](C(=O)OCC(=O)Nc2sccc2C#N)C(C)C)c1	inconclusive [inhibitor, single point]	–
CC(CS(=O)(=O)c1ccc2c(c1)NC(=O)CS2)C(=O)N1CCN(c2cccc(Cl)c2)CC1 (centres undefined)	inconclusive [inhibitor, full curve, poor fit]	–
COc1cc(C(=O)Nc2ccc([N+](=O)[O-])cn2)cc(OC)c1OC	inconclusive [inhibitor, partial curve, poor fit]	–
Cc1cccc(N(CC(=O)NC(C)(C)C)C(=O)CS(=O)CC(=O)Nc2ccc(F)cc2)c1 (centres undefined)	inactive	–
Cc1ccc(NC2c3ncccc3C(=O)N2c2ccccc2C)cc1C (centres undefined)	inconclusive [inhibitor, partial curve]	–
CCSc1ccc([C@@H]2[C@@H]3C(=O)N(C)C(=O)[C@@H]3[C@]3(C(=O)OC)CCCCN23)cc1	inconclusive [inhibitor, partial curve]	–
CCCc1cc(C(=O)Nc2ccccc2SC)no1	inconclusive [inhibitor, single point]	–
O=C(CNC(=S)N(Cc1ccccc1)Cc1cccs1)NCc1ccc(F)cc1	inconclusive [inhibitor, full curve, poor fit]	–
CC(CCc1ccccc1)NC(=O)COC(=O)c1ccc(S(C)(=O)=O)c([N+](=O)[O-])c1 (centres undefined)	inconclusive [inhibitor, partial curve]	–
COc1ccccc1N(C)S(=O)(=O)c1ccc(C(=O)N2CCCC(C(F)(F)F)C2)cc1 (centres undefined)	inconclusive [inhibitor, full curve, poor fit]	–
O=C1C(Cl)=C(Oc2ccccc2)C(=O)c2ccccc21	inconclusive [inhibitor, single point]	–
CCN(CC)S(=O)(=O)c1cccc(C(=O)N[C@H](C(=O)Nc2nc3ccc(F)cc3s2)C(C)C)c1	inconclusive [inhibitor, full curve, poor fit]	–
Cc1cc(NC(=O)COC(=O)c2ccccc2S(=O)(=O)N(C)c2ccccc2)no1	inconclusive [inhibitor, single point]	–
C(=C\c1ccccc1)/C=N/Nc1ccc2nncn2n1	inactive	–
CCSc1nnc(-c2sc3nnc(-c4ccccc4)c(-c4ccccc4)c3c2N)o1	inactive	–
Cc1ccc(S(=O)(=O)N2CCCCC2)cc1NC(=O)c1cccs1	–	inconclusive: -12.5% [inhibitor]
O=C(Nc1ccc2c(c1)nc1n2CCN(C2CCCCC2)C1)c1ccco1	inconclusive [inhibitor, single point]	–
Oc1cccc2cc(Nc3ccccc3)cnc12	inactive	–
Oc1ccc(N=Cc2sc3ccccc3c2Cl)cc1	inconclusive [inhibitor, full curve]	–
CC1C(=O)N(Cc2cn(Cc3ccco3)nn2)CCS(=O)(=O)N1Cc1ccc(-c2cccc(N(C)C)c2)cc1 (centres undefined)	inactive	–

SMILES	Potency	activity change, negative = inhibition
O=C(NCc1ccccc1)c1ccc(N2CCC3(CC2)CC(c2ccccc2)=NO3)c([N+](=O)[O-])c1	inconclusive [inhibitor, single point]	–
Cc1ccc(-c2ccc(C(=O)Nc3ccccc3)o2)c2ccccc12	inactive	–
CC(C)CCN(C(=O)CCCSc1nc2ccccc2[nH]1)c1c(N)n(Cc2ccccc2)c(=O)[nH]c1=O	inconclusive [inhibitor, single point]	–
COc1cccc(C(=O)N2CCN(c3ncccn3)CC2)c1	inconclusive [inhibitor, single point]	–
CCCNC(=O)C1CC(=O)N(c2ccc(OCC(=O)Nc3cc(C)cc(C)c3)cc2)C1 (centres undefined)	inconclusive [inhibitor, full curve, poor fit]	–
O=C(Nc1nc2ccccc2c(=O)s1)c1ccc(F)cc1Cl	inconclusive [inhibitor, partial curve]	–
COc1ccc(-c2nc(Cn3c(SCc4ccccc4F)nc4ccncc43)c(C)o2)cc1	inconclusive [inhibitor, partial curve, poor fit]	–
COc1ccc(C=CC(=O)c2ccc(OC)c(OC)c2)cc1O	inconclusive [inhibitor, full curve, poor fit]	–
COc1ccc(C(NC(=O)/C=C/c2ccco2)c2ccc(OC)cc2)cc1	inactive	–
Cc1cccc(C(=O)N[C@H](C(=O)OCc2cc(=O)n3c(n2)sc2ccccc23)C(C)C)c1	inconclusive [inhibitor, full curve, poor fit]	–
Cc1cccc(NC(=O)CN2C(=O)S/C(=C\c3ccc(O)c([N+](=O)[O-])c3)C2=O)c1	inconclusive [inhibitor, partial curve]	–
NC(=O)CC[C@@H]1NC(=O)[C@H](CO)NC(=O)c2cc([N+](=O)[O-])cc(I)c2NCCC[C@@H](C(N)=O)NC(=O)[C@H](Cc2ccc(O)cc2)NC1=O	inconclusive [inhibitor, single point]	–
O=C(/C=C/c1ccc(O)c(O)c1)NC(=O)c1ccccc1O	inconclusive [inhibitor, partial curve]	–
COc1cccc2cc(-c3nc4ccccc4o3)c(=O)oc12	inconclusive [inhibitor, partial curve]	–
Cc1ccccc1CN1C(=O)/C(=C\c2ccc(C(=O)NCCN3CCOCC3)cc2)Sc2ccccc21	inconclusive [inhibitor, full curve]	–
CC(=O)c1ccc(NC(=S)NC(C)c2ccc(Cl)cc2Cl)cc1 (centres undefined)	inconclusive [inhibitor, single point]	–
CC1=C(C(=O)N(C(C)C)C(C)C)CC(CC(=O)NCCCCc2ccccc2)C(=O)N1CCC1=CCCCC1 (centres undefined)	inactive	–
CC(Sc1nnc2ccccn12)C(=O)Nc1ncc(Cl)cc1Cl (centres undefined)	inactive	–
O=C(O)c1cccc(NC(=S)NC(=O)c2ccc(-c3ccccc3)cc2)c1	inactive	–
COc1ccc(/C=N/NC(=O)CCC(=O)Nc2ccc(Br)cc2)c(OC)c1	inconclusive [inhibitor, full curve, poor fit]	–
Cc1cccc(CSCCNC(=O)CCSc2ccccc2)c1	inconclusive [inhibitor, single point]	–
CCc1ccccc1N(CC(=O)NCCc1ccccc1)C(=O)CCC(=O)Nc1ccccn1	inconclusive [inhibitor, single point]	–

SMILES	Potency	activity change, negative = inhibition
CN(C)c1ccc(-c2[nH][nH]c(=O)c2NC(=O)c2ccccn2)cc1	inconclusive [inhibitor, full curve]	–
Cc1nc([N+](=O)[O-])c(Br)n1Cc1ccc(Cl)c(Cl)c1	inconclusive [inhibitor, partial curve]	–
Cc1ccc(-c2sc(-c3ccccc3)nc2CC(=O)Nc2ccccc2F)cc1	inconclusive [inhibitor, single point]	–
COc1ccc(C(=O)Nc2ccc(-c3ccc(C)o3)cc2)cc1S(=O)(=O)N1CCOCC1	inconclusive [inhibitor, full curve, poor fit]	–
O=C(Nc1ccccc1Cl)N(Cc1nc2ccccc2c(=O)[nH]1)Cc1cccs1	inconclusive [inhibitor, partial curve]	–
COc1cccc(NS(=O)(=O)c2ccc3c(c2)C2C=CCC2C(c2ccc(C(=O)O)cc2)N3)c1 (centres undefined)	active: 50.1 µM	–
COC(=O)CSc1nc(-c2ccccc2)cc(-c2ccco2)c1C#N	inactive	–
O=C(O)c1nn(CC(=O)N2CCN(c3ncc(C(F)(F)F)cc3Cl)CC2)c(=O)c2ccccc12	inconclusive [inhibitor, single point]	–
O=C(c1ccccc1)c1ccc(OCC(O)CNCc2ccc(Cl)cc2)cc1 (centres undefined)	inactive	–
CC(C)C[C@H]1CN([C@@H](Cc2ccccc2)CN2CCC[C@@H]2CN2C(=O)C(=O)NC[C@@H]2Cc2ccccc2)C(=O)C(=O)N1CCc1ccccc1	inconclusive [inhibitor, partial curve]	–
Cc1nc(Br)c(Br)n1Cc1ccccc1	inconclusive [inhibitor, single point]	–
CC(=O)OC1C=CN(C(C)=O)C(SC(C)(C)C)C1(C)O (centres undefined)	inactive	–
CS(=O)(=O)c1ccc2nc(NC(=O)c3cccc(Cl)c3)sc2c1	inconclusive [inhibitor, single point]	–
Cc1ccc(C)n1-c1ccc(-c2ccn[nH]2)cc1	inconclusive [inhibitor, single point]	–
N/C(=N\OC(=O)CCCc1ccccc1)c1ccccn1	inactive	–
C/C(=N\NC(=O)c1cccc(N/N=C(\C)c2cc(O)ccc2O)c1)c1cc(O)ccc1O	inconclusive [inhibitor, partial curve]	–
CCc1ccc(CNc2ccc(O)cc2)cc1	active: 8.91 µM	–
Cc1cc2c(C)nc(N/N=C/c3ccc(F)cc3)nc2o1	active: 39.8 µM	–
CNC(=S)N1CCN(S(=O)(=O)c2ccc3ccccc3c2)CC1	inactive	–
Cc1ccc(NC(=O)c2ccc(-n3cccn3)c([N+](=O)[O-])c2)cc1	inactive	–
